Experimental data published in PubChem BioAssay (NCI).
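Dose response: 5 concentrations. Exposure: 48 h. Format: 96-well plates. Endpoint: linear interpolation; highest concentration if not reached. Abbreviation: GI50, concentration required for 50% inhibition of growth. TGI is the concentration that stops growth completely.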

Tested on: NCI-H322M lung
Experiment: NCI anticancer screen, dose series, 48 h

SMILES	GI50	TGI
CC1(C)CC[C@]23CC[C@]4(C)[C@H](CC[C@@H]5[C@@]6(C)CC[C@H](N)C(C)(C)[C@@H]6CC[C@]54C)[C@H]2[C@H]1OC3	1.63 µM	3.08 µM
CN1CCN(Cc2ccc(NC(=O)c3cncc(C#Cc4cnc5ccc(NCCO)nn45)c3)cc2C(F)(F)F)CC1	0.337 µM	1.87 µM
